# “And” between values parts separate entries of the source, which are not always exact repeats. Identical values can stand only once. Among all 270,000 compounds or so, about 5,800 (2.1%) were called active. Inconclusive results, whose numbers are uncertain, are shown with a selection of clear calls. The call rests on the fitted dose curve; in most records, active means well fitted inhibition curve with a large enough effect; inconclusive means small, poorly fitted or top-dose-only effect; inactive means flat fitted curve, though single readings scatter. Potencies beside an inconclusive call are fits to weak or partial responses and may not hold up.
# Molecular target: Microtubule-associated protein tau (Homo sapiens) (UniProt P10636)
# Chain of UniProt P10636 (P10636 whole entry, looked up): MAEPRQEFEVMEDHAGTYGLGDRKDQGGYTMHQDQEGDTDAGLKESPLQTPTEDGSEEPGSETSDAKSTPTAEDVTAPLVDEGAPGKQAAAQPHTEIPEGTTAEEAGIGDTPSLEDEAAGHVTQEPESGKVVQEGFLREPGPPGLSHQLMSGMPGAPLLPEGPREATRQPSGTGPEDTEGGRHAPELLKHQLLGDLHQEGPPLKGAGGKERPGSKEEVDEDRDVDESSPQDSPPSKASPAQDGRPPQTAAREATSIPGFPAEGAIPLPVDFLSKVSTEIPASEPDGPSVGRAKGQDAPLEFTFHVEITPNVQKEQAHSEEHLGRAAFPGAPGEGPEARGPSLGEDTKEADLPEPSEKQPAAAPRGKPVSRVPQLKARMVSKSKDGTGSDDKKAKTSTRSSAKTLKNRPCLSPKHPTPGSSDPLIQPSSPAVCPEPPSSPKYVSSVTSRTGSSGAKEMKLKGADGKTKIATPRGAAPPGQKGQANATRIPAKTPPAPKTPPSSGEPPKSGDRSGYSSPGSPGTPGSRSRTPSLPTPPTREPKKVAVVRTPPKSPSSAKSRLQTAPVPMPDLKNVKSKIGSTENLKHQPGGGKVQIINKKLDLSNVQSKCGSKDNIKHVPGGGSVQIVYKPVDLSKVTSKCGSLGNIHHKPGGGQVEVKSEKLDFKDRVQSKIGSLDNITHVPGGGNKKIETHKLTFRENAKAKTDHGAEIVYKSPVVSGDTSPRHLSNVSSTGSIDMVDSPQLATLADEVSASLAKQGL
# Experiment: qHTS for Inhibitors of Tau Fibril Formation, Thioflavin T Binding; further: nearly all actives have a fitted effect of over 55% in size
# Settings: recombinant tau K18 P301L (four-repeat tau fragment), heparin-induced fibrillization, ThT fluorescence; series mostly up to 57.4 µM
# Procedure, shortened: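 Tau K18 P301L fragment (15 uM unlabeled plus 0.24 uM Alexa 594-labeled) in 100 mM sodium acetate pH 7 with compound, fibrillization induced by 20 uM heparin for 6 hr at 37 C. Thioflavin T (30 uM) added, fluorescence read after 1 hr (ex 450, em 510 nm).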
# On the % scale 0 is the no-effect control and ±100 the full control effect; potency means the concentration at half of the fitted maximal effect; tags describe the fitted curve by direction and shape.
SMILES,Potency,"activity, negative = inhibition"
COc1ccc(Nc2cc(C(=O)NCCCN(C)c3ccccc3)c3ccccc3n2)c(OC)c1,"inconclusive: 12.6 µM [inhibitor, partial curve]",–
O=C(CCSCc1cccc(Cl)c1)NCCC1=CCCCC1,"inconclusive: 10 µM [inhibitor, partial curve]",–
Cc1cccc(C)c1NC(=O)c1c(C)oc2c1C1=NCCN1C=N2,inactive,–
CCCOCc1cc(CN2CCN(c3cccc(Cl)c3)CC2)c(O)c2ncccc12,"inconclusive: 12.6 µM [inhibitor, single point]",–
CCOc1cc(/C=N/NC(=O)C(N)=O)cc(Br)c1O,inactive,–
Cc1nc2cc(-c3ccccc3)nn2c(C)c1CCC(=O)NCCc1ccccc1,"inconclusive: 17.8 µM [inhibitor, single point]",–
Cn1c(O)c(C(C#N)=C2N=c3ccccc3=N2)c2ccccc21,"inconclusive: 5.01 µM [inhibitor, full curve]",–
N#C/C(=C/c1ccc(N2CCCCC2)o1)C(=O)Nc1ccc(Cl)cc1,"inconclusive: 2.51 µM [inhibitor, full curve]",–
Cc1cnnn1-c1ccc(C(=O)CCl)cc1,"inconclusive: 17.8 µM [inhibitor, partial curve]",–
COc1ccc(Cn2c(=S)[nH]c3cc(OC)c(OC)cc3c2=O)cc1,inactive,–
CS/C(=N\S(=O)(=O)c1cccs1)NC(=O)CSc1nc2ccccc2s1,"inconclusive: 17.8 µM [inhibitor, single point]",–
O=C(CNc1ccc2c(c1)OCO2)N/N=C\c1cn(Cc2ccc(F)cc2)c2ccccc12,"inconclusive: 2 µM [inhibitor, partial curve]",–
C=CCOC(=O)NC(c1ccc(F)c(F)c1)C(C(C)=O)C(=O)OC (stereo not given),inactive,–
CC(C)c1nc2ccc(C(=O)NCc3ccc(F)cc3)cc2o1,inactive,–
COc1ccc(S(=O)(=O)NCC(c2ccco2)N2CCN(c3ccccc3F)CC2)cc1OC (stereo not given),inactive,–
N#Cc1sc2nc(C3CC3)cc(-c3ccccc3)c2c1N,"inconclusive: 28.2 µM [inhibitor, partial curve]",–
O=C1c2ccccc2C(=O)C1c1nccc2ccccc12,active: 1.41 µM,–
COc1ccc(-c2ccc3c(N)c(C(=O)Nc4ccc(C)cc4C)sc3n2)cc1OC,"inconclusive: 1.12 µM [inhibitor, full curve]",–
COCCN1C(=O)/C(=C/c2ccc(N3CCCC3)cc2)SC1=S,"inconclusive: 1.58 µM [inhibitor, full curve]",–
Cc1nn(C)c2c1c(-c1ccccc1)cc(=O)n2C(C)C(=O)NCCc1ccc(Cl)cc1 (stereo not given),"inconclusive: 25.1 µM [inhibitor, single point]",–
Cc1nn(C)c(C)c1N1C(=O)c2cccc3c(N)ccc(c23)C1=O,"inconclusive: 22.4 µM [activator, partial curve, poor fit]",–
CCOC(=O)CCCNC(=O)N1CCc2nc(-c3ccccc3)c3c(c2C1)CO[C@@H](C)C3,–,inactive: -1.11% [at 11.5 µM]
CCOc1ccc(NC(=O)CSCc2cnn(-c3ccccc3)c2-n2cccc2)cc1,"inconclusive: 12.6 µM [inhibitor, partial curve]",–
O=C(CSc1nnc(-c2cccnc2)n1Cc1ccco1)c1ccc(Cl)c(Cl)c1,"inconclusive: 14.1 µM [inhibitor, single point]",–

SMILES,Potency,"activity, negative = inhibition"
COc1cccc(OCC(=O)O/N=C(\N)c2ccc(OC)c(OC)c2)c1,"inconclusive: 7.94 µM [inhibitor, full curve, poor fit]",–
O=C(N/N=C/C1=C(N2CCOCC2)C(=C\c2ccccc2)/CC1)Nc1ccccc1,"inconclusive: 28.2 µM [inhibitor, single point]",–
Cc1cccc(C(=O)Nc2ccc(C(=O)/C=C/c3cccs3)cc2)c1,"inconclusive: 5.01 µM [inhibitor, partial curve]",–
CCN(CC)CCNC(=O)c1ccc2c(c1)NC(=O)C(CS(=O)(=O)Cc1ccc(F)cc1Cl)N2 (stereo not given),"inconclusive: 15.8 µM [inhibitor, partial curve, poor fit]",–
CNc1nc(-c2ccccn2)nnc1-c1ccccc1,inactive,–
CCC(=O)NNC(=O)c1c(O)c2ccccc2[nH]c1=O,inactive,–
O=C(CCCC(=O)N1CCN(c2ccc([N+](=O)[O-])cc2)CC1)c1ccccc1,active: 2.24 µM,–
COc1ccc(CC2C(=O)OC(C)(C)OC2=O)cc1,inactive,–
CCN(CC)CCN1CCn2c3c(c4cc(C)ccc42)CCCC31 (stereo not given),"inconclusive: 22.4 µM [inhibitor, single point]",–
COCCN1CCn2c(nc3cc(NC(=O)c4ccc(OC)cc4)ccc32)C1,"inconclusive: 10 µM [inhibitor, partial curve]",–
COc1ccc(NC(=O)c2ccc3snnc3c2)cc1,"inconclusive: 12.6 µM [inhibitor, partial curve]",–
CC(C)[N+](C)(CCOC(=O)C1c2ccccc2Oc2ccccc21)C(C)C,"inconclusive: 12.6 µM [inhibitor, partial curve]",–
O=c1oc(Nc2ccccc2Cl)nc2ccccc12,inactive,–
Cc1cc(C)c(/C=C/c2onc(C)c2S(=O)(=O)N2CCC(C(=O)NCC(C)c3ccccc3)CC2)c(C)c1 (stereo not given),inactive,–
Cc1ccccc1NS(=O)(=O)c1cccc(-c2nnc(-c3ccccc3)o2)c1,inactive,–
CCOC(=O)c1ccc(NC(=O)NC2CC3CCC(C2)N3)cc1 (stereo not given),"inconclusive: 1.26 µM [inhibitor, full curve]",–
Cc1cc(NC(=O)CCCN2C(=O)/C(=C/c3cccs3)SC2=S)no1,inactive,–
O=S(=O)(c1ccc(Cl)c(NC(=S)N/N=C/c2ccc(O)cc2)c1)N1CCOCC1,"inconclusive: 17.8 µM [inhibitor, partial curve]",–
O=C(Nc1ccccc1C(=O)N/N=C/c1ccc(F)cc1)c1ccccc1Br,inactive,–
Cn1c(C(=O)N2CCCC(C(=O)NCCCSC3CCCCC3)C2)cc2sccc21 (stereo not given),"inconclusive: 39.8 µM [inhibitor, single point]",–
CCOC(=O)C1C(=O)C=C(c2ccc(Br)cc2)CC1c1ccco1 (stereo not given),"inconclusive: 17.8 µM [inhibitor, partial curve]",–
COc1ccccc1N1CCN(C(=O)c2nc(-c3ccc(C)cc3)n3c2CCCCC3)CC1,"inconclusive: 20 µM [activator, partial curve]",–
CCC(C)c1ccc2oc(-c3ccc(NC(=O)Cn4cnc5c(=O)n(C)c(=O)n(C)c54)cc3)nc2c1 (stereo not given),inactive,–
OCCNc1ncnc2c1c(-c1ccccc1)c(-c1ccccc1)n2Cc1ccco1,"inconclusive: 31.6 µM [inhibitor, single point]",–

SMILES,Potency,"activity, negative = inhibition"
O=C(c1cc2c(s1)-c1ccccc1OC2)N1CCc2ccccc2C1,"inconclusive: 3.98 µM [inhibitor, partial curve]",–
O=C(Nc1ccccc1)c1cn2ccccc2n1,inactive,–
CCc1cccc(NC(=O)C2CCCN2S(=O)(=O)c2ccc3c(c2)n(C)c(=O)c(=O)n3C)c1 (stereo not given),"inactive and inconclusive: 7.94 µM [inhibitor, single point]",–
CCOc1ccc(-n2c(C)cc(/C=N/NC(=O)C(N)=O)c2C)cc1,"inconclusive: 17.8 µM [inhibitor, partial curve]",–
Cc1csc(NC(=O)c2ccc(C(=O)Nc3nc(C)cs3)cc2)n1,"inconclusive: 1 µM [inhibitor, full curve, poor fit]",–
O=C(CC(Nc1ccc(F)cc1)C(=O)O)c1ccccc1 (stereo not given),"inconclusive: 14.1 µM [inhibitor, partial curve]",–
CCOc1cc(/C=N/NC(N)=O)ccc1OCC(=O)Nc1ccc(C)c(C)c1,"inconclusive: 20 µM [inhibitor, partial curve, poor fit]",–
CC(C)(C)NS(=O)(=O)c1cnc(Cl)c(Cl)c1,inactive,–
C=C(C)C1CCC2(C(=O)O)CCC3(C)C(CCC4C5(C)C(C=O)C(O)C(C)(C)C5CCC43C)C12 (stereo not given),"inconclusive: 5.01 µM [inhibitor, single point]",–
CCN1C=C(Cc2ccc(OC)cc2)C2=C(C1)C(c1ccc(OC)cc1)C(C#N)=C(N)O2 (stereo not given),"inconclusive: 12.6 µM [inhibitor, partial curve]",–
COc1cc(OC)c(N(C)C(=O)c2nn(C)c3c2CSc2ccccc2-3)cc1Cl,inactive,–
O=C(Cc1cccc2ccccc12)Nc1ccc(N2CCOCC2)cc1,"inconclusive: 17.8 µM [inhibitor, single point]",–
CN1C(=O)Cc2cc(S(=O)(=O)CCC(=O)Nc3ccccc3)ccc21,inactive,–
CNc1ccc(Br)cc(C(=O)/C=C/c2cc(OC)ccc2OC)c1=O,active: 10 µM,–
Cc1cccc(N2CCN(C(=O)CC(NC(=O)c3ccccc3Cl)c3ccccc3)CC2)c1C (stereo not given),"inconclusive: 39.8 µM [inhibitor, single point]",–
CC(=O)C1=C(c2ccc(Cl)c(Cl)c2)N(C(C)=O)n2c(C)nnc2S1,"inconclusive: 12.6 µM [inhibitor, partial curve]",–
O=C1NN(c2ccccc2)C(=O)/C1=C\c1coc2ccc(O)cc2c1=O,active: 14.1 µM,–
COc1cc(C(=O)NCc2ccncc2)cc(OC)c1OC,inactive,–
COC(=O)c1nc2n(n1)C(c1cccc(Cl)c1)C1=C(CCCC1=O)N2 (stereo not given),inactive,–
COc1cc([N+](=O)[O-])cc(/C=N/NC(=O)C(C)Nc2cccc(C)c2)c1O (stereo not given),active: 11.2 µM,–
Cc1cc2c(c(=O)o1)C(c1cccs1)C(C#N)=C(N)O2 (stereo not given),"inconclusive: 15.8 µM [inhibitor, partial curve]",–
CC(/C=N/n1c(-c2cc(C)[nH]n2)n[nH]c1=S)=C\c1ccco1,"inconclusive: 12.6 µM [inhibitor, partial curve, poor fit]",–
